Hit rate of the full screen: of about 310,000 compounds, about 2,200 (0.71%) showed an effect of 50% or more. The effect is printed as a negative number. This is one part of the list.
molecular target: human ether-à-go-go-related gene (hERG) potassium channel (human, UniProt Q12809); assay: primary screen, population patch clamp on CHO cells stably expressing hERG
Sequence (Q12809 whole entry, looked up): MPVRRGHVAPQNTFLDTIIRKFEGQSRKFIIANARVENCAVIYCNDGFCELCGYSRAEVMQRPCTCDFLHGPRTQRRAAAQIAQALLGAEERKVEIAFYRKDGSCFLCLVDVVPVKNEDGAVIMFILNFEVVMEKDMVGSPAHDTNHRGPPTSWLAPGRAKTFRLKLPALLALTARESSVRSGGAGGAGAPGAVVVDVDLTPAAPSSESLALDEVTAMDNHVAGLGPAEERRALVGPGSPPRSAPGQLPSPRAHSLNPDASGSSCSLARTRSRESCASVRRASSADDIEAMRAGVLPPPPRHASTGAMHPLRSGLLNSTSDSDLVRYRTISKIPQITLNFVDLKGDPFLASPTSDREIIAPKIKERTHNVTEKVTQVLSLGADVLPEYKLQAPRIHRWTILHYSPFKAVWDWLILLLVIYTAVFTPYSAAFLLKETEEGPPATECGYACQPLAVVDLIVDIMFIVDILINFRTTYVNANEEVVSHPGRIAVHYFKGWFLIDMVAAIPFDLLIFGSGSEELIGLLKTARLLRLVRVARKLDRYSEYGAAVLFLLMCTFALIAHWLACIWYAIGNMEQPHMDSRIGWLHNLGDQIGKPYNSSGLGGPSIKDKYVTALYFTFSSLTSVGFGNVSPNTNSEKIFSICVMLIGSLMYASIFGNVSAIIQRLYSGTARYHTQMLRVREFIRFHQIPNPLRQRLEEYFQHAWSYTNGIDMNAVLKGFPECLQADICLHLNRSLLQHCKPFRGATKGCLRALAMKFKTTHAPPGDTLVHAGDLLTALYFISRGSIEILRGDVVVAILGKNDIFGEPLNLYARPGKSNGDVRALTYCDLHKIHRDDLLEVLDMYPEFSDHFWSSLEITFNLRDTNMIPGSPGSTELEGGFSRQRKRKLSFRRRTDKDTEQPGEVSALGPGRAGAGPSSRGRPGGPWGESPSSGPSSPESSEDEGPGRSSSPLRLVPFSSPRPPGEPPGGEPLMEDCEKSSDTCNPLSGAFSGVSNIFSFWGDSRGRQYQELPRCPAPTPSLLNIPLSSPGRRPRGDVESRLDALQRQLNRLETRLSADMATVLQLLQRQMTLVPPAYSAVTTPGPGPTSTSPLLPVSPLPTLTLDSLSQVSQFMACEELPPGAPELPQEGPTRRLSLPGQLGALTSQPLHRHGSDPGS

Structure (SMILES) | hERG current change (%, negative = inhibition) at 1uM [%]
Cc1cc(Nc2ccc(C)c(F)c2)n2ncnc2n1 | 23.4
CCN(CC(=O)Nc1cccc(S(N)(=O)=O)c1)Cc1nc2ccccc2c(=O)[nH]1 | 3.68
COc1cc(C(=O)Nc2ccc(NC(=O)c3ccccc3)nc2)cc(OC)c1OC | 13
O=C(Nc1ccc2c(c1)OCO2)C1CC(c2c(F)cccc2Cl)=NO1 (stereo not shown) | 11.7
O=C1CC(c2ccccc2)CC(O)=C1C=NCCN1CCN(C(=S)Nc2cccc(Cl)c2)CC1 (stereo not shown) | 2.31
Cc1ccc(S(=O)(=O)NCC(C)n2cncn2)cc1C (stereo not shown) | 16.8
C[C@H]1C=C(C(=O)N2CCN(Cc3ccc4c(c3)OCO4)CC2)O[C@@H](OCc2ccc(CO)cc2)C1 | -24.4
CC1CC(=O)Nc2ccccc2N1S(=O)(=O)c1cccc(Cl)c1 (stereo not shown) | 7.78
N#Cc1nc(COc2cccc(Cl)c2)oc1NCc1ccncc1 | -53.8
CCOC(=O)N1CCC(N2C(=O)c3ccc(C(=O)NCc4ccc(F)cc4)cc3C2=O)CC1 | 1.7
Cc1nc2scc(C)n2c(=O)c1S(=O)(=O)N1CCN(c2ccc([N+](=O)[O-])cc2)CC1 | -4.07
COC(=O)c1ccc(NC(=O)c2ccc(OC(C)=O)c(OC)c2)cc1 | 10.7
CCOC(=O)C1=C(C)NC(=O)NC1c1cn(-c2ccccc2)nc1-c1cccs1 (stereo not shown) | 11.2
O=c1[nH]c(=O)n(-c2cccc3ccccc23)c(O)c1C=NCc1ccc2c(c1)OCO2 | 2.06
Cc1onc(-c2ccccc2)c1C(=O)OCC(=O)NCc1ccc(F)cc1 | 10.4
COc1cccc(/C=C2/SC(=O)N(C)C2=O)c1OCc1ccc(C(=O)O)cc1 | 24.2
COc1cc2c(cc1OC)C(Cc1ccc(O)cc1)NCC2 (stereo not shown) | 4.37
COc1cccc(OCC(O)CN2CCc3ccccc3C2)c1.Cl (stereo not shown) | -57.6
CCOC(=O)N1CCN(CCC(=O)Nc2ccc(Br)cc2)CC1 | 1.37
O=[N+]([O-])c1cccc(O)c1 | 14.9
CC(=O)Nc1ccc(NC(=O)C(C)OC(=O)CSc2ccc(Br)cc2C)cc1 (stereo not shown) | 7.83
O=C(CCCn1cnc2ccccc2c1=O)Nc1ccccc1F | 5.5

Structure (SMILES) | hERG current change (%, negative = inhibition) at 1uM [%]
CCCCn1nc(C(=O)N[C@@H](CCSC)c2nc3ccccc3[nH]2)c2ccccc2c1=O | 3.43
Cc1c(N=C/C=C2/N(C)c3ccccc3C2(C)C)c(=O)n(-c2ccccc2)n1C | -5.46
Cc1ccc(C(=O)NCC(c2ccco2)N2CCc3ccccc32)cc1C (stereo not shown) | -23.3
COc1ccc(C[C@H]2CN3C(=NC[C@@H]3C(C)C)N2CCNC(=O)CCC2CCCCC2)cc1 | -86
CN(C)CCCNc1nc(-c2ccc(Cl)cc2)nc2ccccc12 | 6.73
CC(CN1CCCCC1)OC(=O)c1ccc(Cl)cc1Cl.Cl (stereo not shown) | -0.0635
O=C(CN1CCCC1)Nc1ccccc1Sc1ccc(Cl)cc1 | -0.77
O=C(Nc1cc(C(F)(F)F)ccc1N1CCOCC1)c1c(F)c(F)c(F)c(F)c1F | 4.97
O=C(NCc1cccc(Cl)c1)c1cnn2c1NC(c1ccco1)CC2C(F)(F)F (stereo not shown) | -14.8
CCN(CC)S(=O)(=O)c1ccc(NC(=O)COC(=O)c2cc(S(=O)(=O)Nc3ccc(OC)cc3)ccc2O)cc1 | 4.76
CC(=O)N1CCN(CC(=O)Nc2sccc2C#N)CC1 | 14.9
Fc1cccc(CSc2nc3ccncc3[nH]2)c1 | 8.85
Cc1cnc([N+](=O)[O-])n1CCOC(=O)NC(=O)c1ccccc1 | 5.34
COc1cc(CCC(=O)OCC(=O)Nc2ccc3c(c2)OCO3)cc(OC)c1OC | 14.3
CCn1c(SCC(N)=O)nc2ccccc2c1=O | 12.5
CCOC(=O)C1CCN(C(=O)C2(NC(=O)Nc3ccc(F)cc3F)CCCCC2)CC1 | 4.24
Cn1nc(-c2ccccc2)c(-c2nc(-c3cccc(C(F)(F)F)c3)no2)c1Cl | 13.2
COc1cccc(CNCc2ccc3c(c2)OCO3)c1.O=C(O)C(=O)O | 11.6
O=C(O)c1cc(S(=O)(=O)Nc2cc(Cl)ccc2Oc2ccccc2)ccc1O | 19.7
O=C(NCc1cccnc1)c1cccc(-c2cc3ccccc3oc2=O)c1 | -12.7
CC(Sc1nc2ncc(Cl)cc2[nH]1)C(=O)Nc1ccc(C(N)=O)cc1 (stereo not shown) | 10.2
Cn1c2c(c(=O)[nH]c1=O)C(NC(=O)c1ccco1)(C(F)(F)F)C(=O)N2 (stereo not shown) | 12.6

Structure (SMILES) | hERG current change (%, negative = inhibition) at 1uM [%]
Cn1ncc2nc[nH]c(=O)c21 | 9.82
Cn1cc(CNC(=O)C2c3ccccc3Oc3ccccc32)cn1 | 10.9
c1ccc(Oc2cc(-n3cccn3)ncn2)cc1 | -6.74
Cc1cc(C)c2c3c(sc2n1)C(c1ccccc1)C(C#N)=C(N)O3 (stereo not shown) | 1.32
Cc1ccc(NC(=O)/C(C#N)=C/c2ccc(C)s2)c(C)c1 | 14.2
C=CCn1c(SCC(=O)N2CCc3ccccc3C2)nc2sc(C)cc2c1=O | -2.33
C/[N+]([O-])=C\c1ccc([N+](=O)[O-])o1 | 15.3
COC(=O)C1=NNC(C(=O)c2ccco2)C1c1ccc(OC)cc1 (stereo not shown) | 11.3
CCN(CC)CCNc1nc2c(c(=O)[nH]c(=O)n2C)n1CCCc1ccccc1 | 0.0626
Clc1ccc(/C=N/c2c(-c3ccc(Cl)cc3)nc3n2CCS3)cc1 | 4.27
O=Cc1ccccc1OCc1ccc2c(c1)OCO2 | 13.4
CC(C)Nc1cc(C(C)(C)C)nc2c(-c3ccccc3)cnn12 | 7.4
CC1(C)CC(CC(=O)NC(=S)Nc2ccc([N+](=O)[O-])cc2)C(=O)O1 (stereo not shown) | 6.95
Cc1ccccc1CCN1CCCC(CN(C)C(=O)C(=O)c2ccco2)C1 (stereo not shown) | -17.7
O=C(O)CC(CC(=O)O)(C(=O)O)c1ccccc1 | 14.6
O=C(CN1CCN(Cc2ccccc2)CC1)N/N=C/c1ccccc1F | 3.96
O=C(CSCc1c(Cl)cccc1Cl)Nc1ccc2c(c1)OCCO2 | -3.39
COc1cc(OC)c(-c2nc(-c3ccncc3)no2)cc1OC | 16.7
Cc1ccc(S(=O)(=O)CCNC(=O)Cc2ccccc2)cc1 | 8.96
Cc1ccc(Cn2nnc3c(=O)n(CC(=O)NCc4ccco4)cnc32)cc1 | 6.11
C=C(C)CN(Cc1ccccc1)C(=S)Nc1ccccc1 | 13.7
C/C(=N\NC(=O)CCCNc1ccc(C)cc1)c1ccccn1 | -8.17

Structure (SMILES) | hERG current change (%, negative = inhibition) at 1uM [%]
Clc1ccc(OCCOCCOc2cccc3cccnc23)c(Br)c1 | 15.3
CC(C)CC(NC(=O)C1CCCCC1)C(=O)N1CCC2(CC1)OCCO2 (stereo not shown) | -12.4
CC(C)(C)N1C(=O)[C@H]2[C@@H](c3ccc(Br)cc3)N3C(=O)N(c4ccc(Br)cc4)C(=O)[C@@]3(Cc3ccccc3)[C@H]2C1=O | 6.02
CCN(CC)C(=O)c1cnn(-c2ccccc2)c1NC(=O)c1cccc(F)c1 | 9.12
NC(=O)CC(NC(=O)c1ccc(Br)cc1)c1ccc(N2CCCCCC2)c([N+](=O)[O-])c1 (stereo not shown) | 9.48
C=C1N2CCC(CC2)C1(O)c1ccc(C)c(C)c1.Cl (stereo not shown) | 15.7
N#Cc1nccnc1N1CCN(C(=O)Nc2ccccc2)CC1 | 7.98
COc1cc(C(=O)Nc2cc(-c3cn4cccnc4n3)ccc2C)cc(OC)c1OC | 0.852
Cc1ccnc(SC2CC(=O)N(c3ccc(F)cc3)C2=O)n1 (stereo not shown) | 13
COC(=O)c1ccc(NS(=O)(=O)c2ccc(OC)cc2)cc1 | 3.2
CCCCN(C)CCNC(=O)c1cc2c(-c3ccccc3F)nn(C)c2s1 | 7.26
O=C(CN1C(=O)CCC1=O)NCC12CC3CC(CC(C3)C1)C2 | -0.0272
CCc1ccccc1NC(=S)N(CCN1CCOCC1)Cc1ccccc1F | 18.7
Cc1ccc(NC(=O)c2nsc(Cl)c2Cl)cc1 | 4.07
CCCSc1cc(NCCOC(C)=O)c([N+](=O)[O-])c2nonc12 | -10.7
O=[N+]([O-])c1c(Nc2ccccc2O)ccc2nonc12 | 3.97
O=C(Nc1ccc2c(c1)CCC2)c1cccs1 | 11.4
Cc1cccc(N2CCN(CC(=O)Nc3nccs3)CC2)c1C | -3.89
COc1cccc(C(=O)NNC(=O)CCc2ccccc2)c1 | 10.1
O=C(CSc1n[nH]c(-c2cccs2)n1)N1CCCCC1 | 7.23
c1ccc(-c2nccc(-c3ccc(-n4cnc5ccccc54)cc3)n2)cc1 | 9.86
Cc1ccc(C2C(C#N)=C(N)SC(N)=C2C#N)c(C)c1 | 14.3

— paper PMC4336329 (PLoS ONE, 2015)
